The values below come from patent publication US20170290925A1, “Conjugates And Conjugating Reagents” (priority 2014, published 2017).

This assay deals with Karpas-299 cells (T-anaplastic large cell lymphoma, ALCL) xenograft. As to the kind of experiment: Karpas-299 mouse xenograft study (Example 16). The following applies: single i.v. injection at 1 mg/kg. The class given is in vivo, CB17-SCID mice. As to the method:
Conjugates 28 and 29 were prepared from conjugation reagent 21 from Example 12 and conjugation reagent 13 from Example 10, respectively. Conjugations were carried out as described in Example 5.
Healthy female CB17-SCID mice (CBySmn.CB17-Prkdcscid/J, Charles River Laboratories) with an average body weight of 18.9 g were used for cell inoculation (Day 0). 24 to 72 hours prior to tumour cell injection, the mice were y-irradiated (1.44 Gy, ^60Co). The animals were maintained in SPF health status according to the FELASA guidelines in housing rooms under controlled environmental conditions.
Tumours were induced by subcutaneous injection of 10^7 Karpas-299 cells (T-anaplastic large cell lymphoma, ALCL) in 200 μL of RPMI 1640 into the right flank. Tumours were measured twice a week with calipers, and the volume was estimated using the formula: […]
Fifteen days after tumour implantation (Day 15), the animals were randomized into groups of eight mice using Vivo manager® software (169 mm^3 mean tumor volume) and treatment was initiated. The animals from the vehicle group received a single intravenous (i.v.) injection of PBS. The treated groups were dosed with a single i.v. injection of ADC at 1 mg/kg.
Treatment tolerability was assessed by bi-weekly body weight measurement and daily observation for clinical signs of treatment-related side effects. […]

B1: conjugate 29: Brentuximab-drug conjugate prepared from conjugation reagent 13 (conjugate, chains of the INN, looked up)
heavy: QIQLQQSGPEVVKPGASVKISCKASGYTFTDYYITWVKQKPGQGLEWIGWIYPGSGNTKYNEKFKGKATLTVDTSSSTAFMQLSSLTSEDTAVYFCANYGNYWFAYWGQGTQVTVSA[human IgG1 constant region not shown]
light: DIVLTQSPASLAVSLGQRATISCKASQSVDFDGDSYMNWYQQKPGQPPKVLIYAASNLESGIPARFSGSGSGTDFTLNIHPVEEEDAATYYCQQSNEDPWTFGGGTKLEIKRTVAAPSVFIFPPSDEQLKSGTASVVCLLNNFYPREAKVQWKVDNALQSGNSQESVTEQDSKDSTYSLSSTLTLSKADYEKHKVYACEVTHQGLSSPVTKSFNRGEC
modifications: drug conjugate from reagent 13
For the molecule B1, the “Effect on tumour volume” value is “complete reduction in tumour volume for the duration of the study”.
